In all, about 110,000 compounds went through this assay and about 230 (0.21%) showed an effect of 50% or more. This is one part of the list.
Target: DPAP1 (Plasmodium falciparum, UniProt Q8IIJ9)
Experiment: primary screen, percent inhibition; read by cleavage of a fluorogenic dipeptide substrate; higher = more effect of the substance
Set-up: species or system P. falciparum D10 trophozoite lysates; single well
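Also: 30 min substrate incubation versus DMSO and 10 µM JCP410 controls.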

Chain of DPAP1 (Q8IIJ9 whole entry, looked up): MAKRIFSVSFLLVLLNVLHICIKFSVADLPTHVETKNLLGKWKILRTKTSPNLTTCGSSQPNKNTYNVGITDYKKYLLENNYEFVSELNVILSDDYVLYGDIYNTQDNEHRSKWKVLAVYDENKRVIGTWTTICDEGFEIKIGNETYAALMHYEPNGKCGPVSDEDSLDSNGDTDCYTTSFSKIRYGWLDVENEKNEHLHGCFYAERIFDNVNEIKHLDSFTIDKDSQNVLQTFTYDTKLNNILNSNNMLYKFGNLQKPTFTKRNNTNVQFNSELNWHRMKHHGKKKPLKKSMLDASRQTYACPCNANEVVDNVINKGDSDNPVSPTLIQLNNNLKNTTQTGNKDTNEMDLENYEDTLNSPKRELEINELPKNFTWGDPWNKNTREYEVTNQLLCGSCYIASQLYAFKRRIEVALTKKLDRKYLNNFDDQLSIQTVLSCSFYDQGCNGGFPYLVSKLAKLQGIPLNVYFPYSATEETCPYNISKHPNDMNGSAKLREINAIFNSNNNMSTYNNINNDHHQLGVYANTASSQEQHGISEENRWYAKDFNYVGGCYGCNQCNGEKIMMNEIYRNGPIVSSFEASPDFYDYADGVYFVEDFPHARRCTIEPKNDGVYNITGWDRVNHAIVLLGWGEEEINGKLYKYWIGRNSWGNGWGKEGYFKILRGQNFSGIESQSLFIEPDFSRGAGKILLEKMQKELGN

| SMILES | % Inhibition @ 10 uM [%] |
| --- | --- |
| Cc1ccc2nc(O)c3cc(C(=O)NCCN(C)C)sc3c2c1 | -3.94 |
| O=C(O)c1ccc2c(c1)C(=O)N(c1ccc(Cl)c(C(=O)O)c1)C2=O | -0.305 |
| O=C(C(Cc1ccccc1)NS(=O)(=O)c1cccc2nsnc12)N1CCC2(CC1)OCCO2 (stereo not shown) | -1.43 |
| CCC(=O)c1c(-c2ccccc2)nc2n(Cc3ccccc3)c3ccccc3n12 | -5.52 |
| CC(C)(C)CC(C)(C)NC(=O)c1ccc2snnc2c1 | -0.0235 |
| Cc1cccc(C(OCCN(C)C)c2ccccc2)c1 (stereo not shown) | -5.01 |
| CCOc1ccccc1CNC(=O)c1cnc(SC)nc1CC | 2.58 |
| Cc1ccc(S(=O)(=O)NCCC(=O)NC2CC2)cc1 | -2.14 |
| O=S1(=O)CCC(Nc2ccccc2)C1 (stereo not shown) | -2.59 |
| Cc1ccccc1-n1nc2c(c1NC(=O)/C=C\c1ccc3c(c1)OCO3)CS(=O)(=O)C2 | 18.6 |
| OCCN(/C=N/C1=NN(c2cccc(C(F)(F)F)c2)CC1)CCO | 2.65 |
| CC(C)Oc1ncnc2sc3c(c12)CCCC3 | -4.39 |
| CC(C)CN1CSC(COc2cccc3ccccc23)C1 (stereo not shown) | -3.87 |
| COc1ccc(NC(=O)c2sc3nc(-c4ccccc4)ccc3c2N)cc1 | -4.11 |
| Cc1cc(C)cc(-n2c(C)cc(/C=C3/C(=N)N4C(=NC3=O)SN=C4S(C)(=O)=O)c2C)c1 | 1.85 |
| CCOc1ccc(C2c3c(oc4ccccc4c3=O)C(=O)N2c2nc(C)c(C)s2)cc1OC (stereo not shown) | -0.828 |
| N#C/C(=C(O)\C=C\C(=O)O)c1nc2ccccc2[nH]1 | -4.85 |
| COc1ccc(OC)c(NC(=O)Cc2ccccc2)c1 | 2.49 |
| COc1ccc(-c2noc(CN(C(=O)CCCN3C(=O)c4ccccc4C3=O)C(C)C)n2)cc1 | 1.38 |
| Cc1c(NCc2nc3ccccc3[nH]2)c(=O)n(-c2ccccc2)n1C | -1.85 |
| COc1ccccc1CNc1nc2c(S(=O)(=O)c3ccccc3)nnn2c2ccccc12 | -10.5 |
| COc1ccc(-c2ccc3c(N)c(C(=O)NCCc4ccccc4)sc3n2)cc1 | -4.02 |

| SMILES | % Inhibition @ 10 uM [%] |
| --- | --- |
| O=C(O)CSCCc1ccccn1 | 2.62 |
| CCN1CCN(CC(O)COc2cccc(OC)c2)CC1 (stereo not shown) | -1.44 |
| CCOCCCNc1nc2ccc(C(=O)c3ccccc3)cc2n2cnnc12 | -3.24 |
| COc1ccc2cc3c(N)nn(C(=O)c4ccccc4F)c3nc2c1 | -2.75 |
| COc1cccc(C2C(C(=O)Nc3ccccc3OC)=C(C)Nc3nc(CCCO)nn32)c1 (stereo not shown) | 0.709 |
| COC(=O)c1cc(S(=O)(=O)N2CCn3c2nc2ccccc23)c[nH]1 | -4.07 |
| CCC1CCCCN1Cc1nc2c(c(=O)n(C)c(=O)n2C)n1Cc1ccccc1Cl (stereo not shown) | 6.08 |
| O=C1CCC(=O)N1CCn1c2ccccc2c2nc3ccccc3nc21 | -1.74 |
| O=C(c1ccccc1)c1ccc(OCCNS(=O)(=O)c2ccc3ccccc3c2)cc1 | 0.895 |
| CCOc1ccc(C2CC(=O)N3C(=C2C#N)SCC3(O)c2ccc(C)cc2)cc1OC (stereo not shown) | -1.74 |
| O=c1c2c3c(sc2nc2n1CCCC2)CCC3 | -1.99 |
| CCNC(=O)CCc1nc(-c2ccccc2)no1 | -3.12 |
| CC(C)c1ccc(C(=O)Nc2ccccn2)cc1 | 0.389 |
| COc1ccc2nc(NC(=O)NCc3noc4ccccc34)sc2c1 | 1.95 |
| Cc1ccc(CNC(=O)c2ccc(C/N=c3/c(N4CCCC4)c(O)c3=O)cc2)cc1 | -0.447 |
| COC(=O)C1=CN(C2CC2)C=C(C(=O)OC)C1c1cccs1 | 16 |
| O=C(CCS(=O)(=O)c1cccs1)NCCc1ccccc1Cl | 0.287 |
| Cc1ccc(-c2cc(-c3ccccc3)nc(-n3nc(-c4ccccc4)cc3O)n2)cc1 | -2.36 |
| COc1ccc(-c2noc(CNC(=O)c3ccccc3-c3ccccc3)n2)cc1 | -1.22 |
| O=C(O)CNC(=O)c1cccnc1 | 1.91 |
| O=CN1CCN(C(C(=O)NC2CCCCC2)c2ccc(Cl)cc2)CC1 (stereo not shown) | -2.9 |
| Cc1ccc2[nH]c(-c3cccs3)nc2c1 | -0.551 |

| SMILES | % Inhibition @ 10 uM [%] |
| --- | --- |
| Cc1cccc(C)c1N1C(=O)CC(N2CCN(Cc3ccccc3)CC2)C1=O (stereo not shown) | -1.82 |
| CCN(CC)S(=O)(=O)c1ccc(Cl)c([N+](=O)[O-])c1 | -1.97 |
| Cc1ccnc(NC(=O)Cc2ccc(F)cc2)c1 | 0.843 |
| COc1cccc(C2C(C(=O)c3ccc4c(c3)OCCO4)=C(O)C(=O)N2CCN(C)C)c1OC (stereo not shown) | -0.48 |
| COCc1cc(C)nc(SCC(=O)Nc2nc(-c3ccccc3)cs2)c1C#N | -1.38 |
| CN1CCCN(Cc2c(F)cccc2F)CC1 | -2.03 |
| Cn1c(=O)c2c(nc(CN3CCc4ccccc4C3)n2CCCO)n(C)c1=O | 0.317 |
| Cc1ccc(S(=O)(=O)N(CC(=O)NCc2ccncc2)c2cc(Cl)ccc2C)cc1 | 1.67 |
| CCOc1ncccc1-c1nc(-c2ccc(-n3cccc3)cc2)no1 | 3.47 |
| Nc1c(C(=O)Nc2ccc(Br)cc2F)sc2nc(-c3ccncc3)ccc12 | -4.15 |
| O=c1/c(=C/c2ccc(OCc3ccccc3)cc2)sc2ncnn12 | 0.487 |
| Cc1cc(C(=O)O)cc(S(=O)(=O)Nc2ccc(Br)cc2)c1C | -3.69 |
| O=C(NCCCNC(=O)C1c2ccccc2Oc2ccccc21)C1c2ccccc2Oc2ccccc21 | -2.89 |
| COc1cc(C(=O)N2CCN(c3ncc(C(F)(F)F)cc3Cl)CC2)cc(OC)c1OC | 0.776 |
| Cc1cc(CN2CCN(C(=O)c3ccco3)CC2)cs1 | 4.65 |
| COc1ccc2c(C)cc(S)nc2c1 | -8.01 |
| Cc1cc(C)c(S(=O)(=O)N2CCCCC2)cc1S(=O)(=O)N1CCCCC1 | 4.03 |
| Cc1cccc(COn2cccc(C(=O)Nc3nc4ccccc4s3)c2=O)c1 | 1.72 |
| COC(=O)c1ccc(/C=c2\sc3nnc(-c4cccc(C)c4)n3c2=O)cc1 | -1.82 |
| Cc1ccc(-c2nc(S(=O)(=O)c3ccc(Cl)cc3)c(N3CCOCC3)o2)cc1 | -3.04 |

Reference: article PMC6919601, “Identification of Plasmodium dipeptidyl aminopeptidase allosteric inhibitors by high throughput screening” (PLoS ONE, 2019)
